Test results published in a collection of fitness landscapes (doi:10.1016/j.celrep.2020.107928).
Over roughly 81,000 sequences, “one-hybrid fitness for binding parS DNA” has its median near -0.17; the highest 2% begin near 0.51. The list shows a part of the results.

B1: Caulobacter ParB omega fusion; a variant is named by its letters at X, in order, B8GW30 (parent)
chain: MESVVVGEPGMSEGRRGLGRGLSALLGEVDAAPAQAPGEQLGGSREAPIEILQRNPDQPRRTFREEDLEDLSNSIREKGVLQPILVRPSPDTAGEYQIVAGERAWRAAQRAGLKTVPIMVRELDDLAVLEIGIIENVQRADLNVLEEALSYKVLMEKFERTQENIAQTIGKSXSHVANXMRLLXLPDEVQSYLVSGELTAXHARAIAAAADPVALAKQIIEGGLSVRETEALARKAPNLSAGKSKGGRPPRVKDTDTQALESDLSSVLGLDVSIDHRGSTGTLTITYATLEQLDDLCNRLTRGI

Variants of: B1
Experiment: one-hybrid fitness for binding parS DNA (scaled: cognate 1, non-cognate 0); higher = stronger binding
Details: with parS DNA site
Procedure, shortened: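 Bacterial one-hybrid selection in E. coli USO rpoZ- hisB- pyrF- with a HIS3 reporter carrying the site 19 bp from the promoter, screening Caulobacter ParB libraries with four specificity codons randomised (NNS). Cells grew 48 hours at 37°C on M9-minus-histidine plus 0.1 mM IPTG and 5 mM 3-AT. Plasmids before and after selection were Illumina-sequenced, three replicate libraries pooled, and variants under 10 reads dropped. Fitness is the log change in variant-to-wild-type read ratio, rescaled to cognate 1, non-cognate 0.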

Variant	one-hybrid fitness for binding parS DNA
YHRC	≤ 0.2
RHRH	0.232
SMWR	≤ 0.2
WHSR	≤ 0.2
QMVG	≤ 0.2
TWIT	≤ 0.2
PWLT	≤ 0.2
TALS	≤ 0.2
ARIE	≤ 0.2
PREV	≤ 0.2
HVRW	≤ 0.2
HANT	≤ 0.2
LYSW	≤ 0.2
RQNY	0.442
SPMC	≤ 0.2
GLSF	≤ 0.2
SSAE	≤ 0.2
KFSC	≤ 0.2
GNIW	≤ 0.2
VTPR	≤ 0.2
SVNV	≤ 0.2
IWNG	≤ 0.2
PCIC	≤ 0.2
AVAW	≤ 0.2
VNRV	≤ 0.2
TYMC	≤ 0.2

Variant	one-hybrid fitness for binding parS DNA
SLTI	≤ 0.2
RVEL	≤ 0.2
LISK	≤ 0.2
IEST	≤ 0.2
YHEG	≤ 0.2
NQCS	≤ 0.2
NGPC	≤ 0.2
PALC	≤ 0.2
QQMH	≤ 0.2
MASV	≤ 0.2
AGMR	≤ 0.2
KLPI	≤ 0.2
WRWS	≤ 0.2
MTNL	≤ 0.2
VCSC	≤ 0.2
QGWS	≤ 0.2
REQP	≤ 0.2
MAFM	≤ 0.2
RMPM	≤ 0.2
SHCR	≤ 0.2
CDNT	≤ 0.2
VKDT	≤ 0.2
HVIS	≤ 0.2
YCHT	≤ 0.2
EGYR	≤ 0.2
LCPS	≤ 0.2

Variant	one-hybrid fitness for binding parS DNA
ACPK	≤ 0.2
SASI	≤ 0.2
APEM	≤ 0.2
PPCV	≤ 0.2
NSHP	≤ 0.2
QHIY	≤ 0.2
GAYR	≤ 0.2
LSPG	≤ 0.2
EKDG	≤ 0.2
MYTL	≤ 0.2
TMSQ	≤ 0.2
PLHG	≤ 0.2
CGPC	≤ 0.2
CKSR	≤ 0.2
CEAV	≤ 0.2
TMTP	≤ 0.2
YGFV	≤ 0.2
PEKN	≤ 0.2
SNPK	≤ 0.2
TPGT	≤ 0.2
FVPG	≤ 0.2
KGRW	≤ 0.2
NHNC	≤ 0.2
THRH	≤ 0.2
DGVS	≤ 0.2
PWDT	≤ 0.2

Variant	one-hybrid fitness for binding parS DNA
DWDT	≤ 0.2
YAGV	≤ 0.2
KPRL	≤ 0.2
HLLS	≤ 0.2
WTSF	≤ 0.2
VELW	≤ 0.2
HNNT	≤ 0.2
SADA	≤ 0.2
HLTT	≤ 0.2
MIRY	≤ 0.2
RQAT	0.884
VRDY	≤ 0.2
CHRF	≤ 0.2
RWVI	≤ 0.2
QISE	≤ 0.2
RPMS	≤ 0.2
ASGG	≤ 0.2
IRPG	≤ 0.2
GPVR	≤ 0.2
NCQG	≤ 0.2
PWCF	≤ 0.2
TMML	≤ 0.2
WPTF	≤ 0.2
SPVE	≤ 0.2
NWNA	≤ 0.2
LTYA	≤ 0.2

Variant	one-hybrid fitness for binding parS DNA
ADTR	≤ 0.2
RHNF	≤ 0.2
TVGR	≤ 0.2
HPNK	≤ 0.2
IKSS	≤ 0.2
VEAH	≤ 0.2
KNVC	≤ 0.2
SPGW	≤ 0.2
VHLL	≤ 0.2
DMKE	≤ 0.2
GVCA	≤ 0.2
NAEP	≤ 0.2
MIHG	≤ 0.2
NHST	≤ 0.2
LAGT	≤ 0.2
SVGP	≤ 0.2
PLDI	≤ 0.2
PFHN	≤ 0.2
ATGL	≤ 0.2
SSNC	≤ 0.2
TFWT	≤ 0.2
DEHG	≤ 0.2
RVSR	≤ 0.2
IWQR	≤ 0.2
RVSE	≤ 0.2
HLCM	≤ 0.2

Variant	one-hybrid fitness for binding parS DNA
QNKH	≤ 0.2
RQHN	0.425
GCHN	≤ 0.2
NECT	0.25
PIYM	≤ 0.2
MQIF	≤ 0.2
MSYH	≤ 0.2
GECA	≤ 0.2
WRTL	≤ 0.2
PTTC	≤ 0.2
QSSK	≤ 0.2
HEAN	≤ 0.2
ELKV	≤ 0.2
QSFF	≤ 0.2
LKSD	≤ 0.2
RVPS	0.812
TVNY	≤ 0.2
MNDT	≤ 0.2
GTAC	≤ 0.2
HYMS	≤ 0.2
QEME	≤ 0.2
LAPK	≤ 0.2
STTV	≤ 0.2
